The values that follow come from the supplement of paper PMC12645437, “Orthogonal IMiD-Degron Pairs Induce Selective Protein Degradation in Cells” (ACS Chemical Biology, 2025).

This is one part of the list.
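Note: jurkat cells carrying a lentiviral library of mutant zinc finger degrons fused to EGFP plus mCherry, mCherry+ cells FACS sorted, degron abundance counted by next-generation sequencing.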

The assay has as its target no compound (DMSO). As to the kind of experiment: log2 fold change of degron read counts, EGFP-low vs EGFP+ sorted cells; higher = lower degron-EGFP level without compound (poor expression or instability). Conditions: compound: DMSO control; 18 h.
On to FVCDVCGAWFTQKGNLLRHIKL, for which the “log2 fold change of degron read counts” value was -0.783.

As for FHCNQCGRIFTQKGNLLRHIKL, the “log2 fold change of degron read counts” value was determined as 0.755.

With FMCDQCGAEFTQKGNLLRHIKL, the “log2 fold change of degron read counts” value is -1.35.

Regarding FMCPVCGANFTQKGNLLRHIKL, the “log2 fold change of degron read counts” value is -0.202.

Take FGCPQCGAPFTQKGNLLRHIKL: the “log2 fold change of degron read counts” value was -0.94.

On to FACEQCGAHFTQKGNLLRHIKL, for which the “log2 fold change of degron read counts” value was -2.44.

Consider FVCEICGHCFTQKGNLLRHIKL, for which the “log2 fold change of degron read counts” value was -1.7.

For the sequence FLCPQCGACFTQKGNLLRHIKL, the “log2 fold change of degron read counts” value is -0.498.

With FHCEICGHGFTQKGNLLRHIKL, the “log2 fold change of degron read counts” value is -1.45.

As for FNCPICGHHFTQKGNLLRHIKL, the “log2 fold change of degron read counts” value is -0.435.

With FDCDQCGANFTQKGNLLRHIKL, the “log2 fold change of degron read counts” value is -1.29.

Consider FNCEICGRMFTQKGNLLRHIKL, for which the “log2 fold change of degron read counts” value was -0.729.

Consider FQCDICGAKFTQKGNLLRHIKL, for which the “log2 fold change of degron read counts” value was -1.35.

Consider FYCDQCGANFTQKGNLLRHIKL, for which the “log2 fold change of degron read counts” value was -2.04.

Consider FFCNVCGASFTQKGNLLRHIKL, for which the “log2 fold change of degron read counts” value is -0.136.

For FACDICGACFTQKGNLLRHIKL, the “log2 fold change of degron read counts” value is -1.29.

In the case of FTCEICGRNFTQKGNLLRHIKL, the “log2 fold change of degron read counts” value was -1.18.

On to FNCEQCGARFTQKGNLLRHIKL, for which the “log2 fold change of degron read counts” value was -0.975.

As to FKCPVCGAHFTQKGNLLRHIKL, the “log2 fold change of degron read counts” value is -0.818.

As for FWCPVCGAWFTQKGNLLRHIKL, the “log2 fold change of degron read counts” value was 1.8.

In the case of LCCNQCGFTCTQKGNLLRHIKL, the “log2 fold change of degron read counts” value was 0.318.

With FFCNQCGASFTQKGNLLRHIKL, the “log2 fold change of degron read counts” value is -1.21.

With FNCDICGAFFTQKGNLLRHIKL, the “log2 fold change of degron read counts” value is -0.05.

In the case of FCCNQCGHRFTQKGNLLRHIKL, the “log2 fold change of degron read counts” value came out at 0.407.

As to FGCNVCGAYFTQKGNLLRHIKL, the “log2 fold change of degron read counts” value was 0.802.

In the case of FDCNQCGAQFTQKGNLLRHIKL, the “log2 fold change of degron read counts” value is -1.07.

Regarding LWCEICGFLCTQKGNLLRHIKL, the “log2 fold change of degron read counts” value amounted to 2.34.

FACPVCGAKFTQKGNLLRHIKL: the “log2 fold change of degron read counts” value amounted to 0.0705.

For the sequence LSCNQCGFDCTQKGNLLRHIKL, the “log2 fold change of degron read counts” value amounted to 0.0919.

With FCCEVCGAPFTQKGNLLRHIKL, the “log2 fold change of degron read counts” value is -0.85.

For the sequence LTCEICGFNCTQKGNLLRHIKL, the “log2 fold change of degron read counts” value was -0.216.

As for FICEVCGANFTQKGNLLRHIKL, the “log2 fold change of degron read counts” value is -1.11.

Turning to FYCEICGRPFTQKGNLLRHIKL, the “log2 fold change of degron read counts” value is -0.159.

As for FDCDICGARFTQKGNLLRHIKL, the “log2 fold change of degron read counts” value is -2.67.

On to FTCSVCGHSFTQKGNLLRHIKL, for which the “log2 fold change of degron read counts” value was -1.25.

In the case of FVCNICGAKFTQKGNLLRHIKL, the “log2 fold change of degron read counts” value was -0.488.

For the sequence FVCDVCGAAFTQKGNLLRHIKL, the “log2 fold change of degron read counts” value is -1.78.

In the case of FCCPICGHMFTQKGNLLRHIKL, the “log2 fold change of degron read counts” value was determined as 0.51.

As for FKCNICGAQFTQKGNLLRHIKL, the “log2 fold change of degron read counts” value was -0.747.

Take FICPVCGARFTQKGNLLRHIKL: the “log2 fold change of degron read counts” value is 0.177.

Take FNCEVCGAWFTQKGNLLRHIKL: the “log2 fold change of degron read counts” value was -0.922.

Turning to FICNICGARFTQKGNLLRHIKL, the “log2 fold change of degron read counts” value was -0.899.

On to FVCNQCGADFTQKGNLLRHIKL, for which the “log2 fold change of degron read counts” value is -2.91.

For the sequence FDCSVCGHSFTQKGNLLRHIKL, the “log2 fold change of degron read counts” value was -0.957.

For the sequence FECNVCGAIFTQKGNLLRHIKL, the “log2 fold change of degron read counts” value was -0.706.

For FCCNICGALFTQKGNLLRHIKL, the “log2 fold change of degron read counts” value was -0.33.

Consider FWCPICGRHFTQKGNLLRHIKL, for which the “log2 fold change of degron read counts” value is 0.106.

FDCSVCGHMFTQKGNLLRHIKL: the “log2 fold change of degron read counts” value amounted to 0.845.

As to FYCPICGANFTQKGNLLRHIKL, the “log2 fold change of degron read counts” value is -0.127.

With FHCNQCGAHFTQKGNLLRHIKL, the “log2 fold change of degron read counts” value was -0.529.
